# Results reported in the supplement of paper PMC12230231.
# ± gives the standard deviation of the averaged measurements. Restriction of a single-cycle SIVsab GFP reporter by TRIM5α v1-loop variants in CRFK cells. Human variants: read share among cells still uninfected after two challenges over input, higher = gained restriction. Rhesus variants: share among infected cells over input, higher = lost restriction. Reporter dose not given per row. No active / inactive call per row; the paper calls a change when both replicates lie above its controls (mean + 2 SD of stop or wild-type variants, or the top frameshift score). Residues outside the varied loop are taken from Swiss-Prot. The paper reads the human single-substitution scores as noise; they and the rhesus combinations repeat poorly (rank correlation 0.3 to 0.4), indel scores repeat only for the top variants, rhesus substitutions well (0.9).
# Tested on: SIVsab (simian immunodeficiency virus of sabaeus monkeys), single-cycle GFP reporter, in CRFK cells
# Test: enrichment among infected cells over input (fold); higher = weaker restriction
# Details: library: human / rhesus combinations
# Method: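 Pools of CRFK cells expressing variants of the TRIM5α v1 loop were challenged with the single-cycle reporter, sorted by GFP and sequenced; mean of two replicates.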
row,Sequence,enrichment
1,"MASGILLNVKEEVTCPICLELLTEPLSLHCGHSFCQACITANHKKSMLYKEGERSCPVCRISYQPENIQPNRHVANIVEKLREVKLSPEEGQKVDHCARHGEKLLLFCQEDSKVICWLCERSQEHRGHHTFLMEEVAQEYHVKLQTALEMLRQKQQEAEKLEADIREEKASWKIQIDYDKTNVSADFEQLREILDWEESNELQNLEKEEEDILKSLTKSETEMVQQTQYMRELISELEHRLQGSMMDLLQGVDGIIKRIENMTLKKPKTFHKNQRRVFRAPDLKGMLDMFRELTDARRYWVDVTLAPNNISHAVIAEDKRQVSSRNPQIMYQARGTRYTFQTFTNFNYCTGVLGSQSITSGKHYWEVDVSKKSAWILGVCAGFQSDAMYNIEQNENYQPKYGYWVIGLQEGVKYSVFQDGSSHTPFAPFIVPLSVIICPDRVGVFVDYEACTVSFFNITNHGFLIYKFSQCSFSKPVFPYLNPRKCTVPMTLCSPSS [rhesus TRIM5α, 332-344 = QARGTRYTFQTFT]",1.38 ± 0.097
2,"MASGILLNVKEEVTCPICLELLTEPLSLHCGHSFCQACITANHKKSMLYKEGERSCPVCRISYQPENIQPNRHVANIVEKLREVKLSPEEGQKVDHCARHGEKLLLFCQEDSKVICWLCERSQEHRGHHTFLMEEVAQEYHVKLQTALEMLRQKQQEAEKLEADIREEKASWKIQIDYDKTNVSADFEQLREILDWEESNELQNLEKEEEDILKSLTKSETEMVQQTQYMRELISELEHRLQGSMMDLLQGVDGIIKRIENMTLKKPKTFHKNQRRVFRAPDLKGMLDMFRELTDARRYWVDVTLAPNNISHAVIAEDKRQVSSRNPQIMYQAPGTRYTFQTLVNFNYCTGVLGSQSITSGKHYWEVDVSKKSAWILGVCAGFQSDAMYNIEQNENYQPKYGYWVIGLQEGVKYSVFQDGSSHTPFAPFIVPLSVIICPDRVGVFVDYEACTVSFFNITNHGFLIYKFSQCSFSKPVFPYLNPRKCTVPMTLCSPSS [rhesus TRIM5α, 332-344 = QAPGTRYTFQTLV]",0.534 ± 0.2
3,"MASGILLNVKEEVTCPICLELLTEPLSLHCGHSFCQACITANHKKSMLYKEGERSCPVCRISYQPENIQPNRHVANIVEKLREVKLSPEEGQKVDHCARHGEKLLLFCQEDSKVICWLCERSQEHRGHHTFLMEEVAQEYHVKLQTALEMLRQKQQEAEKLEADIREEKASWKIQIDYDKTNVSADFEQLREILDWEESNELQNLEKEEEDILKSLTKSETEMVQQTQYMRELISELEHRLQGSMMDLLQGVDGIIKRIENMTLKKPKTFHKNQRRVFRAPDLKGMLDMFRELTDARRYWVDVTLAPNNISHAVIAEDKRQVSSRNPQIMYGARGTRFPSLTNFNYCTGVLGSQSITSGKHYWEVDVSKKSAWILGVCAGFQSDAMYNIEQNENYQPKYGYWVIGLQEGVKYSVFQDGSSHTPFAPFIVPLSVIICPDRVGVFVDYEACTVSFFNITNHGFLIYKFSQCSFSKPVFPYLNPRKCTVPMTLCSPSS [rhesus TRIM5α, 332-344 = GARGTRFPSLT]",4.63 ± 3.6
4,"MASGILLNVKEEVTCPICLELLTEPLSLHCGHSFCQACITANHKKSMLYKEGERSCPVCRISYQPENIQPNRHVANIVEKLREVKLSPEEGQKVDHCARHGEKLLLFCQEDSKVICWLCERSQEHRGHHTFLMEEVAQEYHVKLQTALEMLRQKQQEAEKLEADIREEKASWKIQIDYDKTNVSADFEQLREILDWEESNELQNLEKEEEDILKSLTKSETEMVQQTQYMRELISELEHRLQGSMMDLLQGVDGIIKRIENMTLKKPKTFHKNQRRVFRAPDLKGMLDMFRELTDARRYWVDVTLAPNNISHAVIAEDKRQVSSRNPQIMYGAPGTRYTFPTFVNFNYCTGVLGSQSITSGKHYWEVDVSKKSAWILGVCAGFQSDAMYNIEQNENYQPKYGYWVIGLQEGVKYSVFQDGSSHTPFAPFIVPLSVIICPDRVGVFVDYEACTVSFFNITNHGFLIYKFSQCSFSKPVFPYLNPRKCTVPMTLCSPSS [rhesus TRIM5α, 332-344 = GAPGTRYTFPTFV]",1.32 ± 0.29
